Measurements from the supplement of paper PMC4967469.
pIC50: −log10 of the molar value. A lower IC50 marks a more sensitive line; fits outside the tested doses are given as limits. AUC sums up the same curve from the lowest dose to the 256-fold higher top dose; the more sensitive the line, the further below 1. The top dose, if marked as inferred, comes from the curve model; the source does not state it.

Compound: Cn1cc(C2=C(c3cn(C4CCN(Cc5ccccn5)CC4)c4ccccc34)C(=O)NC2=O)c2ccccc21 [LY317615]
Test: Viability of human cancer cell lines after 72 h of drug (GDSC screen)
Settings: top dose inferred
Experimental: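 Human cancer cell lines in 384-well plates, medium with 10% serum, drug for 72 h over a 256-fold dose range (nine 2-fold or five 4-fold steps up to the top dose). Adherent lines were fixed and stained with the nucleic acid dye Syto60, suspension lines read with resazurin; signal relative to control wells, capped at 0 and 100%. One two-parameter sigmoid per drug and line, fitted in a mixed model over all curves with the slope shared within a line.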

Row | Cell Line | AUC | pIC50
1 | D-423MG (glioma, adherent, top dose 20 µM) | 0.801 | 4.91
2 | D-502MG (glioma, adherent, top dose 20 µM) | 0.963 | < 4.70
3 | D-542MG (glioma, adherent, top dose 20 µM) | 0.98 | < 4.70
4 | D-566MG (glioma, adherent, top dose 20 µM) | 0.535 | 5.81
5 | DAN-G (pancreas, adherent, top dose 20 µM) | 0.972 | < 4.70
6 | DB (B-cell lymphoma, suspension, top dose 20 µM) | 0.784 | 5.01
7 | DBTRG-05MG (glioma, adherent, top dose 20 µM) | 0.896 | < 4.70
8 | DEL (lymphoid neoplasm, suspension, top dose 20 µM) | 0.847 | 4.99
9 | DG-75 (Burkitt lymphoma, suspension, top dose 20 µM) | 0.845 | 4.83
10 | DJM-1 (skin, adherent, top dose 20 µM) | 0.987 | < 4.70
11 | DK-MG (glioma, adherent, top dose 20 µM) | 0.715 | 5.16
12 | DMS-53 (small cell lung carcinoma, adherent, top dose 20 µM) | 0.986 | < 4.70
13 | DMS-79 (small cell lung carcinoma, suspension, top dose 20 µM) | 0.983 | < 4.70
14 | DMS-114 (small cell lung carcinoma, adherent, top dose 20 µM) | 0.982 | < 4.70
15 | DMS-273 (small cell lung carcinoma, adherent, top dose 20 µM) | 0.826 | 4.89
16 | DND-41 (T-cell leukaemia, suspension, top dose 20 µM) | 0.576 | 5.71
17 | DOK (head and neck, adherent, top dose 20 µM) | 0.845 | < 4.70
18 | DOV13 (ovary, adherent, top dose 20 µM) | 0.932 | < 4.70
19 | DSH1 (bladder, adherent, top dose 20 µM) | 0.433 | 6.08
20 | DU-145 (prostate, adherent, top dose 20 µM) | 0.945 | < 4.70
21 | DU-4475 (breast, suspension, top dose 20 µM) | 0.725 | 5.33

Row | Cell Line | AUC | pIC50
22 | Daoy (medulloblastoma, adherent, top dose 20 µM) | 0.909 | < 4.70
23 | Daudi (Burkitt lymphoma, suspension, top dose 20 µM) | 0.978 | < 4.70
24 | Detroit562 (head and neck, adherent, top dose 20 µM) | 0.89 | < 4.70
25 | DoTc2-4510 (cervix, adherent, top dose 20 µM) | 0.939 | < 4.70
26 | EB2 (Burkitt lymphoma, suspension, top dose 20 µM) | 0.59 | 5.67
27 | EB-3 (Burkitt lymphoma, suspension, top dose 20 µM) | 0.865 | < 4.70
28 | EBC-1 (lung squamous cell carcinoma, adherent, top dose 20 µM) | 0.92 | < 4.70
29 | EC-GI-10 (oesophagus, adherent, top dose 20 µM) | 0.989 | < 4.70
30 | ECC10 (stomach, suspension, top dose 20 µM) | 0.974 | < 4.70
31 | EFM-19 (breast, adherent, top dose 20 µM) | 0.36 | 6.38
32 | EFM-192A (breast, adherent, top dose 20 µM) | 0.889 | < 4.70
33 | EFO-21 (ovary, adherent, top dose 20 µM) | 0.681 | 5.30
34 | EFO-27 (ovary, adherent, top dose 20 µM) | 0.761 | 5.05
35 | EGI-1 (biliary tract, adherent, top dose 20 µM) | 0.975 | < 4.70
36 | EJM (lymphoid neoplasm, semi-adherent, top dose 20 µM) | 0.914 | < 4.70
37 | EKVX (lung adenocarcinoma, adherent, top dose 20 µM) | 0.918 | < 4.70
38 | EM-2 (chronic myeloid leukaemia, suspension, top dose 20 µM) | 0.83 | 4.83
39 | EMC-BAC-1 (lung adenocarcinoma, adherent, top dose 20 µM) | 0.846 | 4.75
40 | EMC-BAC-2 (lung adenocarcinoma, adherent, top dose 20 µM) | 0.73 | 5.19
41 | EN (endometrium, adherent, top dose 20 µM) | 0.974 | < 4.70
42 | EPLC-272H (lung squamous cell carcinoma, adherent, top dose 20 µM) | 0.519 | 5.85

Row | Cell Line | AUC | pIC50
43 | ES1 (Ewing sarcoma, adherent, top dose 20 µM) | 0.866 | 4.76
44 | ES3 (Ewing sarcoma, adherent, top dose 20 µM) | 0.844 | 4.81
45 | ES4 (Ewing sarcoma, adherent, top dose 20 µM) | 0.966 | < 4.70
46 | ES5 (Ewing sarcoma, adherent, top dose 20 µM) | 0.641 | 5.49
47 | ES6 (Ewing sarcoma, adherent, top dose 20 µM) | 0.871 | < 4.70
48 | ES7 (Ewing sarcoma, adherent, top dose 20 µM) | 0.662 | 5.45
49 | ES8 (Ewing sarcoma, adherent, top dose 20 µM) | 0.907 | < 4.70
50 | ES-2 (ovary, adherent, top dose 20 µM) | 0.98 | < 4.70
51 | ESO26 (oesophagus, adherent, top dose 20 µM) | 0.66 | 5.47
52 | ESO51 (oesophagus, semi-adherent, top dose 20 µM) | 0.764 | 4.99
53 | ESS-1 (endometrium, adherent, top dose 20 µM) | 0.936 | < 4.70
54 | ETK-1 (biliary tract, adherent, top dose 20 µM) | 0.737 | 5.18
55 | EVSA-T (breast, adherent, top dose 20 µM) | 0.975 | < 4.70
56 | EW-1 (Ewing sarcoma, semi-adherent, top dose 20 µM) | 0.873 | 4.78
57 | EW-3 (Ewing sarcoma, adherent, top dose 20 µM) | 0.984 | < 4.70
58 | EW-7 (Ewing sarcoma, semi-adherent, top dose 20 µM) | 0.789 | 5.11
59 | EW-11 (Ewing sarcoma, adherent, top dose 20 µM) | 0.981 | < 4.70
60 | EW-13 (Ewing sarcoma, suspension, top dose 20 µM) | 0.519 | 5.85
61 | EW-16 (Ewing sarcoma, adherent, top dose 20 µM) | 0.958 | < 4.70
62 | EW-18 (Ewing sarcoma, suspension, top dose 20 µM) | 0.856 | 4.75
63 | EW-24 (Ewing sarcoma, semi-adherent, top dose 20 µM) | 0.993 | < 4.70

Row | Cell Line | AUC | pIC50
64 | EoL-1-cell (haematopoietic neoplasm, suspension, top dose 20 µM) | 0.819 | 5.01
65 | FADU (head and neck, adherent, top dose 20 µM) | 0.919 | < 4.70
66 | FLO-1 (oesophagus, adherent, top dose 20 µM) | 0.888 | < 4.70
67 | FTC-133 (thyroid, adherent, top dose 20 µM) | 0.979 | < 4.70
68 | FU97 (stomach, adherent, top dose 20 µM) | 0.947 | < 4.70
69 | FU-OV-1 (ovary, adherent, top dose 20 µM) | 0.954 | < 4.70
70 | Farage (B-cell lymphoma, suspension, top dose 20 µM) | 0.684 | 5.44
71 | G-292 Clone A141B1 (osteosarcoma, adherent, top dose 20 µM) | 0.761 | 4.93
72 | G-361 (melanoma, adherent, top dose 20 µM) | 0.912 | < 4.70
73 | G-401 (kidney, adherent, top dose 20 µM) | 0.894 | < 4.70
74 | G-402 (soft tissue, adherent, top dose 20 µM) | 0.764 | 5.02
75 | G-MEL (melanoma, adherent, top dose 20 µM) | 0.896 | < 4.70
76 | GAK (melanoma, adherent, top dose 20 µM) | 0.976 | < 4.70
77 | GAMG (glioma, adherent, top dose 20 µM) | 0.723 | 5.25
78 | GB-1 (glioma, adherent, top dose 20 µM) | 0.979 | < 4.70
79 | GCIY (stomach, adherent, top dose 20 µM) | 0.971 | < 4.70
80 | GCT (soft tissue, adherent, top dose 20 µM) | 0.987 | < 4.70
81 | GDM-1 (acute myeloid leukaemia, suspension, top dose 20 µM) | 0.738 | 5.24
82 | GI-1 (glioma, adherent, top dose 20 µM) | 0.963 | < 4.70
83 | GI-ME-N (neuroblastoma, adherent, top dose 20 µM) | 0.854 | < 4.70
